In assay [1] the target is T1, purified mutant MGL (mut-MGLL 11-313 L179S L186S) (Homo sapiens, UniProt Q99685, L169S/L176S).
T1 sequence (Q99685 1-303 L169S/L176S): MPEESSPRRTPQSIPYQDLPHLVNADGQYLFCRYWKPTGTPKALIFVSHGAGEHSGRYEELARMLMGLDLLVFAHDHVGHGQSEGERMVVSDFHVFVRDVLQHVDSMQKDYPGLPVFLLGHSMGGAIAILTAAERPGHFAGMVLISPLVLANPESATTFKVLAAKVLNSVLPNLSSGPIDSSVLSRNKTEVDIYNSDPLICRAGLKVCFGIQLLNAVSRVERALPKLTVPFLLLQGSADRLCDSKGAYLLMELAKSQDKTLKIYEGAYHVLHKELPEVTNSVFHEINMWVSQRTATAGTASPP
The following applies: read-out: Ex. 3 (mutant) IC50.

Assay [2] has as its target T1, purified mutant MGL (mut-MGLL 11-313 L179S L186S). The following applies: read-out: Ex. 4 Kd.
Setting [3] is: mutant MGL (mut-MGLL 11-313 L179S L186S).

Read-outs that look alike come from different tables or passages of the source.

By IC50 is commonly meant the concentration at which inhibition is half-maximal. As usually defined, the Kd is a measure of binding affinity in units of concentration. Turning to `O=C(C=Cc1ccccc1)N1CC(N2CCN(c3ccccn3)CC2)C1` [Compound #207], the IC50 in assay [1] (mutant MGL, substrate 4MU-B) is more than 15.3 µM. Further, the Kd in assay [2] (ThermoFluor, mutant MGL) worked out at 12.5 µM.

For `O=C(CCc1ccccc1)N1CC(N2CCN(c3ccccn3)CC2)C1` [Compound #208], in assay [1] (mutant MGL, substrate 4MU-B), the 50% inhibitory concentration (IC50) is more than 15.3 µM. Further, the Kd in assay [2] (ThermoFluor, mutant MGL) came out at 16.7 µM.

For the compound `CCCc1cc2cc(C(=O)N3CC(N4CCN(c5ccccn5)CC4)C3)ccc2n1C` [Compound #213], the concentration for half-maximal inhibition (IC50) in assay [1] (mutant MGL, substrate 4MU-B) came out at 0.81 µM. Further, the dissociation constant (Kd) in assay [2] (ThermoFluor, mutant MGL) was 4.55 µM.

As for `O=C(c1ccccc1Cc1ccccc1)N1CC(N2CCN(c3ccccn3)CC2)C1` [Compound #217], the IC50 in assay [1] (mutant MGL, substrate 4MU-B) is more than 15.3 µM. Also, in assay [2] (ThermoFluor, mutant MGL), the Kd is more than 76.7 µM.

With `O=C([C@@H]1CCCc2ccccc21)N1CC(N2CCN(c3ccccn3)CC2)C1` [Compound #218], the 50% inhibitory concentration (IC50) in assay [1] (mutant MGL, substrate 4MU-B) was more than 15.3 µM. The dissociation constant Kd in assay [2] (ThermoFluor, mutant MGL) is more than 76.7 µM.

For the compound `CC(C)Cc1ccc([C@H](C)C(=O)N2CC(N3CCN(c4ccccn4)CC3)C2)cc1` [Compound #219], the concentration for half-maximal inhibition (IC50) in assay [1] (mutant MGL, substrate 4MU-B) is more than 15.3 µM. Further, in assay [2] (ThermoFluor, mutant MGL), the dissociation constant (Kd) was more than 76.7 µM.

On to `O=C(C1Cc2ccccc2C1)N1CC(N2CCN(c3ccccn3)CC2)C1` [Compound #221], for which the 50% inhibitory concentration (IC50) in assay [1] (mutant MGL, substrate 4MU-B) is more than 15.3 µM. For the same compound, the equilibrium dissociation constant (Kd) in assay [2] (ThermoFluor, mutant MGL) came to 17.2 µM.

For the compound `O=C(CC(c1ccccc1)c1ccccc1)N1CC(N2CCN(c3ccccn3)CC2)C1` [Compound #222], the IC50 in assay [1] (mutant MGL, substrate 4MU-B) was more than 15.3 µM. In addition, in assay [2] (ThermoFluor, mutant MGL), the dissociation constant Kd was more than 76.7 µM.

Regarding `O=C(c1ccc2c(c1)CCCN2)N1CC(N2CCN(c3cccc(C(F)(F)F)c3)CC2)C1` [Compound #223], the IC50 in assay [1] (mutant MGL, substrate 4MU-B) was more than 17 µM. In addition, the Kd in assay [2] (ThermoFluor, mutant MGL) was more than 31.2 µM.

As to `O=C(c1cc(-c2ccccc2)c(C(F)(F)F)s1)N1CC(N2CCN(c3ccccn3)CC2)C1` [compound 61, 1-(1-{[4-Phenyl-5-(trifruoromethyl)thiophen-2-yl]carbonyl}azetidin-3-yl)-4-pyridin-2-ylpiperazine], the IC50 in assay [1] (setting [3]) was 0.462 µM. Also, in assay [2] (ThermoFluor, mutant MGL), the Kd came to 2.18 µM.

Consider `O=C(c1ccc(-c2ccccc2)cc1)N1CC(N2CCCN(c3ncccn3)CC2)C1` [compound 83], for which the 50% inhibitory concentration (IC50) in assay [1] (setting [3]) worked out at 2.8 µM. Moreover, the dissociation constant Kd in assay [2] (ThermoFluor, mutant MGL) amounted to 2.38 µM.

As for `c1ccc(N2CCCN(C3CN(c4ccc(N5CCCC5)cc4)C3)CC2)nc1` [compound 87, 1-Pyridin-2-yl-4-[1-(4-pyrrolidin-1-yl-phenyl)-azetidin-3-yl]-[1,4]diazepane], in assay [1] (setting [3]), the IC50 was 3.99 µM. Besides, the dissociation constant Kd in assay [2] (ThermoFluor, mutant MGL) stood at 1.54 µM.

In the case of `c1ccc(Cc2ccc(N3CC(N4CCCN(c5ncccn5)CC4)C3)cc2)cc1` [compound 110, 1-[1-(4-Benzyl-phenyl)-azetidin-3-yl]-4-pyrimidin-2-yl-[1,4]diazepane], in assay [1] (setting [3]), the half-inhibitory concentration (IC50) was 1.69 µM. For the same compound, the Kd in assay [2] (ThermoFluor, mutant MGL) worked out at 2 µM.

Take `CC(C)(C)OC(=O)N1CCC(Oc2ccc(N3CC(N4CCCN(c5ccccn5)CC4)C3)cc2)CC1` [compound 124, 4-{4-[3-(4-Pyridin-2-yl-[1,4]diazepan-1-yl)-azetidin-1-yl]-phenoxy}-piperidine-1-carboxylic acid tert-butyl ester]: in assay [1], the IC50 turned out to be 0.263 µM. Besides, the Kd in assay [2] was 0.541 µM.

The record behind these values is patent US20130184251A1, “HETEROAROMATIC AND AROMATIC PIPERAZINYL AZETIDINYL AMIDES AS MONOACYLGLYCEROL LIPASE INHIBITORS” (Janssen Pharmaceutica, NV, priority 2009, published 2013).
